The text below walks through data of article PMC8308780, “Antiviral Activity of Isoquinolone Derivatives against Influenza Viruses and Their Cytotoxicity” (Pharmaceuticals, 2021).

For this test, the system named is PR8 virus.

`COc1cc2cc(-c3ccccc3)[nH]c(=O)c2cc1OC` [Compound 21, 6,7-dimethoxy-3-phenylisoquinolone]: the “NP expression (Western blot)” value is listed as “inhibition of NP expression”.
